According to PMC4336329 (PLoS ONE, 2015):
The whole screen tested about 310,000 compounds, of which about 2,200 (0.71%) showed an effect of 50% or more. Effects have a minus sign here. The list shows a part of the results.

Target: human ether-à-go-go-related gene (hERG) potassium channel (human, UniProt Q12809)
Test: primary screen, population patch clamp on CHO cells stably expressing hERG

Chain of human ether-à-go-go-related gene (hERG) potassium channel (Q12809 whole entry, looked up): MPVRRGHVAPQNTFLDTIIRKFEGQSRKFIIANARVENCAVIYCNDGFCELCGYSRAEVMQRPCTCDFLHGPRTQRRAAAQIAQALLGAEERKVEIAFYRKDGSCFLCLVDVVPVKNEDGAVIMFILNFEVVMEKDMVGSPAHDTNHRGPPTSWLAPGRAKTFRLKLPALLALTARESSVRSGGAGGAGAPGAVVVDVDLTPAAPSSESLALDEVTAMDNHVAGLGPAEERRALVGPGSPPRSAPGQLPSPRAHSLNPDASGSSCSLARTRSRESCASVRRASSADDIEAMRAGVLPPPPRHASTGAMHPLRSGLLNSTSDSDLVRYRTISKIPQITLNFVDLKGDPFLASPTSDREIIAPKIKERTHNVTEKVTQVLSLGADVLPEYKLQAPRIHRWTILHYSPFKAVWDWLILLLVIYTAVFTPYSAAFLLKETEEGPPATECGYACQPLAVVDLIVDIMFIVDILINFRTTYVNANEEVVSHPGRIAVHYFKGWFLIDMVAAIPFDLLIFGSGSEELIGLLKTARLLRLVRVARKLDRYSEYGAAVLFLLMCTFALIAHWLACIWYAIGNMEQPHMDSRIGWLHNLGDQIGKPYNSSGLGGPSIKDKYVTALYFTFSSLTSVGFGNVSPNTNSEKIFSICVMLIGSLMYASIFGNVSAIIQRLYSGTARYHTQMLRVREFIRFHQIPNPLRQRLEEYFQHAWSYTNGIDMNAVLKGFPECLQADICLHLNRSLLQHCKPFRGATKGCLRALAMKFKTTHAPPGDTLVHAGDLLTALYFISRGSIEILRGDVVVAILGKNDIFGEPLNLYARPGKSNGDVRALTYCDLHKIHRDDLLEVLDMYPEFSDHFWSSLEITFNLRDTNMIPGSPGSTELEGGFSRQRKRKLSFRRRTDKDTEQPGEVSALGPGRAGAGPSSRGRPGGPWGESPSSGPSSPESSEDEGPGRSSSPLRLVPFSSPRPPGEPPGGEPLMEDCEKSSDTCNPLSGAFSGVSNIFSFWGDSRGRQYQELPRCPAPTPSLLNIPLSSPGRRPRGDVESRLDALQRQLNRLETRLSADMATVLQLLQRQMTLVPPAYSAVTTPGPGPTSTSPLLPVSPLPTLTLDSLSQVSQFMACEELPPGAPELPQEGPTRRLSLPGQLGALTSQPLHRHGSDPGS

SMILES | hERG current change (%, negative = inhibition) at 1uM
Cc1oc(-c2ccccc2F)nc1CS(=O)CC(=O)NCCN1CCCCC1C (stereo not shown) | -1.26%
CC(CC(=O)Nc1ccc(S(=O)(=O)N2CCOCC2)cc1)c1ccccc1 (stereo not shown) | 5.36%
O=C(CN1CCOCC1)Nc1ccc(S(=O)(=O)NC2CCCCC2)cc1 | -3.14%
COCCCn1[nH]c2c3c(ccc2c1=O)C(=O)c1ccccc1C3=O | 14.5%
Cc1cc(C)nc(N2CCC(C(=O)NC3CC3)CC2)n1 | 5.42%
O=C(CN1CCC(NC(=O)Cc2ccccc2)CC1)Nc1cccc2ccccc12 | -2.1%
Cc1ccc(-c2nnn(CC(=O)N(CC(=O)NC3CCCC3)c3cccc(F)c3)n2)o1 | 14.4%
CCOc1ccc(-n2c(SC(C)C)nc3c(c2=O)SCC3)cc1 | 13.4%
COc1ccc(N2CC(C(=O)Nc3ccc4c(c3)OCO4)CC2=O)cc1 (stereo not shown) | 9.14%
Cc1ccc(CN(Cc2cccnc2)C(=O)CN2C(=O)COc3ccccc32)o1 | 9.71%
CCOc1ccccc1C1C2=C(COC2=O)Nc2cc3c(cc21)OCO3 (stereo not shown) | 17.2%
CCOC(=O)C1CCN(Cc2cc(=O)n3c(-c4ccccc4)csc3n2)CC1 | 6.3%
CCOC(=O)C1=C(C)NC(=O)NC1c1ccc(N(CC)CC)cc1 (stereo not shown) | -3.15%
c1ccc(CCc2nc(-c3cccnc3)no2)cc1 | 11.5%
Cc1nc2nc(SCC(=O)NCCCN3CCCC3)nn2c(C)c1Cc1ccccc1Cl | 8.01%
CNC(=S)N(CCc1c(C)[nH]c2ccc(F)cc12)Cc1cccnc1 | 7.63%
Cc1ccc(N2C(=N)SCC2=O)cc1Cl | -4.51%
COC(=O)OCC12CCC(O1)C1(C)C(=O)OCC21 (stereo not shown) | 26.8%
Cc1nc2scc(C)n2c(=O)c1S(=O)(=O)NCc1ccc(F)cc1 | 17.3%
CC(=O)Nc1ccc(C(=O)CSc2nc3ccc(C)cc3[nH]2)cc1 | 3.94%
COC(=O)c1ccc(CSCC(=O)Nc2ccccc2)cc1 | 22.6%
Cc1ccc(Nc2nc3c([nH]2)c(=O)[nH]c(=O)n3C)cc1 | 8.49%

SMILES | hERG current change (%, negative = inhibition) at 1uM
COc1ccc(C)cc1NS(=O)(=O)c1ccc(NS(=O)(=O)c2ccc(NC(C)=O)cc2)cc1 | 7.06%
Cc1cccc(C(=O)Oc2csc(=S)n2C(=O)c2cccc(C)c2)c1 | 2.37%
COc1ccc(CNC(=O)COc2cccnc2[N+](=O)[O-])cc1 | 10.3%
O=c1cc(CO)oc(CN2CCN(c3cccc(C(F)(F)F)c3)CC2)c1O | 7.69%
COc1c(C)cc(Br)cc1C(=O)NC(=S)Nc1ccc(Cl)c(C(=O)O)c1 | 19.1%
O=C1CC(N2CCN(Cc3ccc4c(c3)OCO4)CC2)C(=O)N1CCc1ccccc1 (stereo not shown) | 0.601%
COc1ccccc1OCC(O)CN1CCN(CC(=O)Nc2c(C)cccc2C)CC1.Cl (stereo not shown) | 12.2%
Cn1c(SCC(=O)N2CCCC2)nc2ccccc21 | -3.81%
Cc1ccc(OCCn2cncn2)c([N+](=O)[O-])c1 | 11.2%
O=Cc1cn(CC(=O)N2CCc3ccccc32)c2ccccc12 | 4.42%
CCN(CC)S(=O)(=O)c1ccc(O)c(C(=O)OCC(=O)N2CCCC2)c1 | 11.9%
Cl.O=C(O)c1ccc(-c2nc3ccccc3[nH]2)cc1 | 24.9%
COC(=O)N/N=C/c1cccs1 | 11.8%
CC1CCCN(CCCNC(=O)c2nn(C)c3c2CS(=O)(=O)c2ccccc2-3)C1 (stereo not shown) | 2.46%
COc1ccc(C(=O)OCc2c(C)noc2C)cc1 | 8.95%
O=C(Nc1nnc(C(F)(F)F)s1)c1ccc(Br)s1 | 3.86%
Cc1ccc2c(c1)Oc1ccc(NC(=O)CCCl)cc1C(=O)N2 | 3.94%
CC(C)N=c1scc(-c2cccs2)n1/N=C/c1ccc(O)c(O)c1O | 7.43%
COc1ccc(C2CC(c3ccccc3)Nc3nc(N)nn32)cc1 (stereo not shown) | 6.98%
CCC(c1nnnn1Cc1cccs1)N1CCN(c2nc3ccccc3s2)CC1 (stereo not shown) | -26.9%
COc1ccc(-c2cc(C(=O)N3CCN(Cc4ccccc4)CC3)no2)cc1OC | 2.95%
CCOc1cc2[nH]c(=S)n(C3CCN(Cc4ccccc4)CC3)c(=O)c2cc1OCC | 10.3%

SMILES | hERG current change (%, negative = inhibition) at 1uM
COCC(=O)Nc1sc2c(c1C(=O)OC)CCC(C)C2 (stereo not shown) | -3.89%
COc1ccc(-c2cn[nH]c2-c2ccc(OCC(=O)NN)cc2O)cc1OC | 13.7%
CCS(=O)(=O)c1ccc2oc(SCC(=O)Nc3ccc(OC)c(OC)c3)nc2c1 | 8.58%
CCOc1ccc(N=C2C(=O)Nc3ccc(C)c(Br)c32)cc1 | 13.6%
Cc1cccc(C(=O)NC2C(=O)NNC2c2ccc(Cl)cc2)c1 (stereo not shown) | 4.47%
O=C(Nc1ccccc1N1CCOCC1)c1cc2ccccc2o1 | 24.5%
NS(=O)(=O)c1ccc(CNS(=O)(=O)c2cc(Cl)ccc2Cl)cc1 | -0.878%
COc1ccc(C(=O)N2CC(=O)Nc3ccccc32)cc1S(=O)(=O)N1CCCC1 | 8.75%
O=[N+]([O-])c1cccc(NC(=S)N2CCCC2)c1 | 11.2%
COc1ccc(-n2nc([N+](=O)[O-])c(=NCCc3cccc(C)c3)n2O)cc1 | 8.36%
COc1cccc(C(=O)C2CCCN(C(=O)c3cccc(C#CC(C)(C)O)c3)C2)c1 (stereo not shown) | 5.38%
COc1cccc(-n2c(SCC(=O)NCC3CCCO3)nc3c([nH]c4ccccc43)c2=O)c1 (stereo not shown) | -3.17%
Cc1ccc(C(=O)N2CCN(S(=O)(=O)c3ccccc3)CC2)cc1 | 12%
CCOC(=O)N1CCC(NCCNC(=O)c2ccc(Cl)cc2)CC1 | -27.8%
CCN1CCc2c(sc(NC(=O)c3ccc(S(=O)(=O)N4CCCC4)cc3)c2C(=O)NC)C1 | 1.85%
CCOC(=O)C1=C(c2ccccc2)NC(=O)N(C(C)=O)C1c1cccc([N+](=O)[O-])c1 (stereo not shown) | 10.2%
CC(CN1C(C)CCCC1C)OC(=O)c1cccc(F)c1.Cl (stereo not shown) | 8.45%
O=C(/C=C/c1ccccc1Cl)Nc1ccccc1 | 3.15%
CCCCN(CC)C(=O)C1CCC(=O)N(c2ccc(OC)cc2)C1c1ccc(OC)c(OC)c1 (stereo not shown) | 8.74%
CC(C)(C)Nc1nc(N2CCCC2)nc(N2CCCC2)n1 | 8.38%
Cc1ccc(S(=O)(=O)N2CC(=NO)C2)cc1 | 4.06%
O=C(NCc1cccc(C(F)(F)F)c1)C1CC(c2ccc(C(F)(F)F)cc2)=NO1 (stereo not shown) | 18.3%

SMILES | hERG current change (%, negative = inhibition) at 1uM
COc1ccccc1/C=N/Nc1cc(C)nc2ccc(C)cc12 | 12.5%
Cc1ccc(-n2c(N)c(C(=O)Nc3ccccc3F)sc2=S)cc1C | 5.89%
CCC1=C(OC(=O)N(CC)CC)N2C(=O)OC(=NCCc3c[nH]c4ccccc34)[C@]2(C)[C@H]2C1=CC[C@H]1C(=O)NC(=O)[C@H]12 | 16.5%
CN(C)c1nc(Nn2cnnc2)nc(N(C)C)n1 | 14.7%
NC(=O)CSc1nc2sc(-c3ccccc3)cc2c(=O)n1N | 9.56%
Cc1cc(S(=O)(=O)Nc2nc(CN3CCOCC3)nc3sc4c(c23)CCCC4)ccc1F | 11.1%
Cc1ccc(OCCCC(=O)NC(C)c2ccccc2)c(C)c1 (stereo not shown) | -4.17%
CCCCN(C)C(=O)Cn1ncc2c3ccccc3n(CCC)c2c1=O | -1.29%
Cc1cc(C(=O)NCc2cc(C(=O)O)co2)co1 | 9.94%
COc1ccc(C(=O)COC(=O)c2nn(C)c(=O)c3ccccc23)c(OC)c1 | -4.01%
CCN(CC)S(=O)(=O)c1ccc(N2CCOCC2)c(NC(=O)c2cc(=O)[nH]c3ccccc23)c1 | 10.1%
Nc1nc(CSc2nc3ccccc3s2)nc(Nc2ccccc2)n1 | 13.4%
CCOc1ccc(S(=O)(=O)Nc2ccc(C(=O)NCC3(N4CCCCC4)CCCCC3)cc2)cc1 | -7.91%
COc1cccc(C2(O)CCSCC2CN(C)C)c1.Cl (stereo not shown) | 15.9%
COc1ccc(-c2nc3c(c(=O)[nH]c(=O)n3Cc3ccccc3)n2C)cc1 | 13.6%
Cc1ccccc1-c1cc2c(nn1)-c1ccccc1C2=O | 16.9%
Cc1ccc(-c2nc3cccnc3s2)cc1NS(C)(=O)=O | 8.04%
COc1ccc(OC)c(C(=O)NC(CC(N)=O)c2ccc(N3CCC(Cc4ccccc4)CC3)c([N+](=O)[O-])c2)c1 (stereo not shown) | 5.2%
O=C(c1ccc(COCC(F)(F)F)o1)N1CCCC1 | 21.3%
Cc1ccc(NC(=O)N2CCN(C(=O)C3CCCO3)CC2)cc1 (stereo not shown) | 16.5%
O=C(Nc1ccccc1C(=O)Nc1nnc(C(F)(F)F)s1)c1ccccc1Cl | 14.5%
Cc1ccc(NC(=O)CCNS(=O)(=O)c2ccc3[nH]c(=O)oc3c2)cc1N(C)C | 13.4%
